{
  "source": "PubChem BioAssay AID1347120",
  "about": "(National Center for Advancing Translational Sciences (NCATS), 2019)",
  "note": "Several values for one entry are separate records, joined by “and”; a condition that tells them apart may be missing. Equal entries are not always repeated. The campaign covered roughly 390,000 compounds. About 930 (0.24%) were called active. Inconclusive means that the source gave no clear call. Such entries were picked first, then a sample of the others. Calls come from the whole dose curve; as a rule, active = well fitted activation curve with a large enough effect; inconclusive = small, poorly fitted or top-dose-only effect; inactive = no such curve, though single readings can be large or run the other way. Where the call is inconclusive, the potency comes from a doubtful curve fit. Potency is the fitted concentration of half-maximal effect; tags give direction and shape of the fitted curve.",
  "data": [
    {"experiment": "qHTS for Suppressors of FUS Proteinopathy: Primary screen using FUS-linked yeast assay; note: nearly all actives have a fitted effect of over 55% in size;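 for growth rescue (activation): plate controls were DMSO vehicle for no effect and reference control for full effect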", "settings": "S. cerevisiae FUS-expressing, OD600, 24 h; Potency: growth rescue; growth rescue (activation): at 76.6 µM (top of the series)", "in_short": "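Yeast expressing FUS under galactose induction, OD 0.005 in 2% galactose medium; compounds in a dilution series, 24 h at 30C. Growth rescue by absorbance at 600 nm; CP55940 positive control, DMSO negative.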", "values": [
      {"compound": "Cn1c(SCC(=O)N2CCN(S(=O)(=O)c3ccc(Cl)cc3)CC2)nc2ccccc21", "Potency": "inconclusive: 14.1 µM [activator, partial curve, poor fit]"},
      {"compound": "COc1ccc(NC(=O)CCCn2nc(C)c3sc4ccccc4c3c2=O)cc1", "growth rescue (activation)": "inactive: -9.37%"},
      {"compound": "Cc1ccc(OCC(=O)Nc2ccncc2)c(C)c1", "growth rescue (activation)": "inactive: -18.2%"},
      {"compound": "Fc1ccc(C2=CC(c3ccc(F)cc3)n3c(nc4ccccc43)N2)cc1", "note": "(configuration not stated)", "growth rescue (activation)": "inactive: 3.84%"},
      {"compound": "COc1ccc(-c2nc(CSCC(=O)N3CCN(c4ccc(F)cc4)CC3)c(C)o2)cc1", "Potency": "inconclusive: 10 µM [activator, partial curve, poor fit]"},
      {"compound": "Cc1csc(NC(=O)c2sc3nc(-c4cccs4)ccc3c2N)n1", "growth rescue (activation)": "inactive: 26.8%"},
      {"compound": "CCn1cc(Br)c(C(=O)Nc2cccc(Cl)c2)n1", "Potency": "inconclusive: 28.2 µM [activator, single point]"},
      {"compound": "CCCCN(C)c1c(C)nc2ccc(C(=O)NCCOc3ccc(OC)cc3)cn12", "growth rescue (activation)": "inactive: -4.96%"},
      {"compound": "CCC(=O)Nc1ccc(S(=O)(=O)N2CCC(c3nc4ccccc4[nH]3)CC2)cc1", "growth rescue (activation)": "inactive: 19.5%"},
      {"compound": "Cc1nn(C)cc1CNC(=O)c1cnn2c1NC(c1ccc(Br)cc1)CC2C(F)(F)F", "note": "(configuration not stated)", "Potency": "inconclusive: 7.08 µM [activator, partial curve]"},
      {"compound": "COc1cc(OC)c(C2CC(=O)N3CN(c4ccccc4)CSC3=C2C#N)cc1OC", "note": "(configuration not stated)", "Potency": "inconclusive: 39.8 µM [activator, single point]"},
      {"compound": "Fc1ccc(-c2nc(Nc3cccc(C(F)(F)F)c3)nc3c2COc2ccccc2-3)cc1", "growth rescue (activation)": "inactive: -20.7%"},
      {"compound": "COC(=O)c1sccc1S(=O)(=O)N(CC(=O)NCc1ccc(C)cc1)c1ccc(C)cc1", "growth rescue (activation)": "inactive: 4.44%"},
      {"compound": "Cc1c(Cl)cccc1NC(=O)C(=O)NNS(=O)(=O)c1ccc(F)cc1", "Potency": "inconclusive: 12.6 µM [activator, partial curve, poor fit]"},
      {"compound": "CN(C)c1ccc(CNC(=O)Cn2c(=O)oc3cc(S(=O)(=O)N4CCCCCC4)ccc32)cc1", "Potency": "inconclusive: 44.7 µM [activator, single point]"},
      {"compound": "C[C@@]12CCC=C[C@H]1[C@H](c1ccccc1Br)N(Cc1ccccc1)C2=O", "Potency": "inconclusive: 31.6 µM [activator, single point]"},
      {"compound": "Cc1cc(C)c(NC(=O)COC(=O)C2CCC2)c(Cl)c1", "growth rescue (activation)": "inactive: 17.2%"},
      {"compound": "CCNC(=O)c1cc2c(c(-c3cccc(-c4cccc(C(=O)N(C)C)c4)c3)n1)[C@@H](CCO)N(S(=O)C(C)(C)C)C2", "note": "(some centres not stated)", "Potency": "inconclusive: 50.1 µM [activator, single point]"},
      {"compound": "COc1ccc(S(=O)(=O)NC2CC3CCC2C3)cc1Br", "note": "(configuration not stated)", "growth rescue (activation)": "inactive: 21.6%"},
      {"compound": "O=C(NCc1cccnc1)c1nn(-c2ccc(F)cc2)nc1CO", "growth rescue (activation)": "inactive: -1.69%"},
      {"compound": "O=C(NC1CCCCN(Cc2cccc(Cl)c2)C1=O)C1CCCCC1", "note": "(configuration not stated)", "growth rescue (activation)": "inactive: 12.8%"},
      {"compound": "CC(C)c1nc2ccc(C(=O)Nc3ccccc3F)cc2o1", "growth rescue (activation)": "inactive: 6.79%"},
      {"compound": "O=C1NCCCC2c3c(cc(Br)c(O)c3Br)OC12N1CCCCC1", "note": "(configuration not stated)", "Potency": "inconclusive: 50.1 µM [activator, partial curve, poor fit]"},
      {"compound": "O=C1CC(SCc2nc3ccccc3[nH]2)C(=O)N1c1ccc(Cl)cc1", "note": "(configuration not stated)", "growth rescue (activation)": "inactive: 26%"},
      {"compound": "O=C(N/N=C\\c1cccc([N+](=O)[O-])c1O)C1COc2ccccc2O1", "note": "(configuration not stated)", "growth rescue (activation)": "inactive: -3.09%"},
      {"compound": "CCc1ccc([C@H]2[C@@H]3C(=O)C[C@@H]4C(=O)N(C5CCCCC5)C(=O)[C@@H]4[C@@H]3CN2S(=O)(=O)c2ccc(C)cc2)cc1", "Potency": "inconclusive: 25.1 µM [activator, single point]"},
      {"compound": "COc1cccc(-c2nc(NC3CCCC3)c3ccccc3n2)c1O", "Potency": "inconclusive: 31.6 µM [activator, single point]"},
      {"compound": "COC(=O)c1ccc2nc(NC(=O)C(C)(C)C)sc2c1", "growth rescue (activation)": "inactive: -0.536%"},
      {"compound": "CC(O)(c1ccccc1)c1nc(/C=C/c2ccccc2)cs1", "note": "(configuration not stated)", "growth rescue (activation)": "inactive: 21.9%"},
      {"compound": "CCN(CC(=O)NC(C)(C)C)Cc1nc2c(Br)cc(Br)cc2c(=O)[nH]1", "Potency": "inconclusive: 22.4 µM [activator, partial curve, poor fit]"},
      {"compound": "C[C@H](NC(=O)c1nc[nH]c1C(=O)N[C@@H](C)C(=O)OCc1ccccc1)C(=O)OCc1ccccc1", "Potency": "inconclusive: 17.8 µM [activator, single point]"},
      {"compound": "CC(C)(C)OC(=O)C[C@@H]1C/C=C\\C[C@H](CC(=O)N[C@H](CO)Cc2ccccc2)C(=O)N[C@@H](Cc2c[nH]c3ccccc23)COC1=O", "Potency": "inconclusive: 31.6 µM [activator, single point]"},
      {"compound": "COc1cc(NC(=O)Cn2cc(C(=O)c3ccc(F)cc3)c(=O)c3ccc(C)nc32)cc(OC)c1", "Potency": "inconclusive: 22.4 µM [activator, partial curve]"},
      {"compound": "Cc1ccc2nc3c(cc(C#N)c(=O)n3-c3nnc(SCc4ccccc4)s3)c(=O)n2c1", "growth rescue (activation)": "inactive: -14.8%"},
      {"compound": "CCOc1ccc(-c2nc3c(c(SCC(=O)N4CCCCC4)n2)Cc2cccc(OC)c2O3)cc1", "growth rescue (activation)": "inactive: -6.3%"},
      {"compound": "Cc1ccc(-c2csc(N3CCC[C@@H]3C(=O)NCCn3c(-c4ccncc4)nc4ccccc43)n2)cc1", "Potency": "inconclusive: 35.5 µM [activator, single point]"},
      {"compound": "Cc1n[nH]c(C)c1S(=O)(=O)N1CCN(C2CCCCC2)CC1", "Potency": "inconclusive: 11.2 µM [activator, single point]"},
      {"compound": "CCCCN1C(=O)C(O)(CC(=O)c2ccc(C(C)(C)C)cc2)c2ccccc21", "note": "(configuration not stated)", "Potency": "inconclusive: 22.4 µM [activator, partial curve, poor fit]"},
      {"compound": "COc1ccc(Cc2c(O)nc(SCC(=O)NC34CC5CC(CC(C5)C3)C4)[nH]c2=O)cc1", "Potency": "inconclusive: 20 µM [activator, partial curve] and inconclusive: 39.8 µM [activator, single point]"},
      {"compound": "N=c1c2c(ncn1CCCO)Oc1c(ccc3ccccc13)C2c1ccccc1", "note": "(configuration not stated)", "Potency": "inconclusive: 50.1 µM [activator, single point]"},
      {"compound": "Cc1ccc([C@@H]2[C@@H]3C(=O)N(c4ccccc4)C(=O)[C@@H]3[C@]3(C)C(=O)N(Cc4ccc(-c5ccccc5)cc4)CC(=O)N23)o1", "Potency": "inconclusive: 31.6 µM [activator, single point]"},
      {"compound": "CCOC(=O)c1c(NC(=O)c2nc(S(C)(=O)=O)ncc2Cl)sc(C(C)=O)c1C", "growth rescue (activation)": "inactive: -12.3%"},
      {"compound": "O=C(Nc1nc(-c2ccccn2)cs1)c1ccc([N+](=O)[O-])o1", "Potency": "inconclusive: 22.4 µM [activator, partial curve, poor fit]"},
      {"compound": "COc1ccc(CN2CC[C@H]3C=CC[C@@H](C(=O)NCCc4ccccc4)[C@H]3C2=O)cc1OC", "growth rescue (activation)": "inactive: 6.72%"},
      {"compound": "COc1ccc(S(=O)(=O)Nc2ccc3c(c2)C(=O)N([C@H](C)CO)C[C@H](C)[C@@H](CN(C)C(=O)Nc2ccc(F)cc2)OCCCC[C@H](C)O3)cc1", "Potency": "active: 25.1 µM"},
      {"compound": "Cc1ccccc1-c1nnn(CC(=O)Nc2sc3c(c2C#N)CCC(C(C)(C)C)C3)n1", "note": "(configuration not stated)", "growth rescue (activation)": "inactive: -17.1%"},
      {"compound": "CN(CC(=O)Nc1ccccc1Br)C(=O)c1ccccc1-c1nc2ccccc2s1", "Potency": "inconclusive: 39.8 µM [activator, partial curve, poor fit]"},
      {"compound": "COc1cc(/C=C2/C(=O)NN(c3cccc(C)c3)C2=O)ccc1OC(=O)c1ccco1", "growth rescue (activation)": "inactive: 57.6%"},
      {"compound": "Cc1ccccc1C(=O)N1CCC(C(=O)Nc2ccc(S(=O)(=O)N3CCCCC3)cc2)CC1", "Potency": "inconclusive: 35.5 µM [activator, single point]"},
      {"compound": "CCCCCCN1C[C@H](O)[C@@H](n2cc(COC(=O)c3ccccc3)nn2)C[C@@H]1c1ccc(Cl)cc1", "Potency": "inconclusive: 50.1 µM [activator, single point]"},
      {"compound": "O=C(NCc1ccc(F)cc1F)[C@@H]1CCCN1C(=O)[C@@H]1CCCN1", "growth rescue (activation)": "inactive: -7.89%"},
      {"compound": "CC(C)c1nc(C(=O)N2CCc3c([nH]c4ccccc34)C2c2ccccn2)cs1", "note": "(configuration not stated)", "Potency": "inconclusive: 35.5 µM [activator, single point]"},
      {"compound": "CCc1ccc(C(C)NC(=O)c2cc(C)oc2C)cc1", "note": "(configuration not stated)", "growth rescue (activation)": "inactive: 10.8%"},
      {"compound": "C=CCNc1nc(N2CCCC2)nc2ccccc12", "growth rescue (activation)": "inactive: -9.65%"},
      {"compound": "O=C(c1ccc2c(=O)n3c(nc2c1)CCCCC3)N1CCN(c2cccc(Cl)c2)CC1", "Potency": "inconclusive: 35.5 µM [activator, single point]"},
      {"compound": "COc1cccc(C2CC(c3cccc(Br)c3)n3ncnc3N2)c1", "note": "(configuration not stated)", "growth rescue (activation)": "inactive: 7.48%"},
      {"compound": "COc1cccc(C(=O)Nc2ccc(S(=O)(=O)N3CCCCC3)cc2)c1OC", "Potency": "inconclusive: 50.1 µM [activator, single point]"},
      {"compound": "Cc1ccccc1N/N=C1\\CCCNC1=O", "growth rescue (activation)": "inactive: -25.7%"},
      {"compound": "COC(=O)c1cc2oc3ccccc3c2n1CC(=O)Nc1ccc(Cl)cc1F", "growth rescue (activation)": "inactive: -11.2%"},
      {"compound": "Fc1ccc2nc(Nc3nc4cc5c(cc4s3)OCO5)sc2c1", "growth rescue (activation)": "inactive: 18%"},
      {"compound": "O=C(Nc1cc(Cl)ccc1-n1cncn1)c1cncc(Br)c1", "Potency": "inconclusive: 44.7 µM [activator, single point]"},
      {"compound": "Cc1onc(-c2c(F)cccc2Cl)c1C(=O)Nc1cccc(Cn2cccn2)c1", "Potency": "inconclusive: 22.4 µM [activator, single point]"},
      {"compound": "O=C(NCCN1CCC(Cc2ccccc2)CC1)C1CCCN(S(=O)(=O)c2ccc([N+](=O)[O-])cc2)C1", "note": "(configuration not stated)", "growth rescue (activation)": "inactive: 34.1%"},
      {"compound": "CCOC(=O)N1CCc2c(sc3c2c(=O)n(-c2ccccc2C(F)(F)F)c(=O)n3Cc2ccccc2C)C1", "Potency": "inconclusive: 31.6 µM [activator, partial curve]"},
      {"compound": "FC(F)(F)c1cc(-c2ccco2)nc(NCc2cccs2)n1", "growth rescue (activation)": "inactive: 8.98%"},
      {"compound": "C[C@H](CO)N1C[C@H](C)[C@@H](CN(C)S(=O)(=O)c2cccs2)Oc2ccc(NC(=O)Nc3ccccc3)cc2C1=O", "Potency": "inconclusive: 25.1 µM [activator, single point]"},
      {"compound": "O=C(C1CCN(S(=O)(=O)c2cccc3nonc23)CC1)N1CCN(c2cccc(Cl)c2)CC1", "Potency": "inconclusive: 39.8 µM [activator, single point]"}
    ]}
  ]
}
